Among all 210,000 compounds or so, about 5,900 (2.8%) were called active. Inconclusive results, whose numbers are uncertain, are shown with a selection of clear calls. The call rests on the fitted dose curve; in most records, active means well fitted activation curve with a large enough effect; inconclusive means small, poorly fitted or top-dose-only effect; inactive means no such curve, though single readings can be large or run the other way. Where the call is inconclusive, the potency comes from a doubtful curve fit.
Assay: qHTS Assay for Enhancers of SMN2 Splice Variant Expression; further: nearly all actives have a fitted effect of over 55% in size; on activity change, positive = activation: % of control where 0% means no effect
Settings: HEK293 SMN2-luciferase splicing reporter, luminescence, 30-36 h; activity change, positive = activation: at 46.1 µM (top of the series)
Method in brief: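 HEK293 cells carry an SMN2 minigene-luciferase reporter in which exon 7 inclusion puts luciferase in frame. Cells were seeded at 2000 cells/well, attached for 10-12 hours, then exposed to compounds for 30-36 hours at 37C before ONE-Glo luminescence.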
Potency means the concentration at half of the fitted maximal effect; tags describe the fitted curve by direction and shape.

SMILES	Potency	activity change, positive = activation
CCN1C(=O)c2cccc3c(N)ccc1c23	inconclusive: 17.8 µM [activator, single point]	–
COc1ccc(-c2[nH]ncc2N=Nc2ccccc2)cc1	inconclusive: 11.2 µM [activator, partial curve]	–
COc1ccccc1CNc1nc2ccccc2c2nc(-c3cccnc3)nn12	–	inactive: -1.2%
CCOC(=O)N1CCN(C(=O)CSc2nnc(CNC(=O)c3ccccc3F)o2)CC1	–	inactive: -15.5%
COc1ccccc1N(C)S(=O)(=O)c1ccc(C(=O)OCC(=O)NCCC2=CCCCC2)cc1	inconclusive: 1.26 µM [activator, full curve, poor fit]	–
CC(=O)NC(=S)Nc1ccc2oc(-c3cc(F)c(F)cc3Cl)nc2c1	active: 5.01 µM	–
COc1ccc(/C(N)=N/OC(=O)c2ccco2)cc1OC	active: 11.2 µM	–
COc1cc(NC(=O)c2cc(-c3cccs3)on2)c(OC)cc1Cl	–	inactive: -0.0666%
Cc1sc2nc(CN3CCCCC3)nc(Cl)c2c1C	–	inactive: -121%
COc1ccc(CNc2nc(-c3ccco3)nn2C(=O)c2ccccc2Cl)cc1	inconclusive: 17.8 µM [activator, partial curve, poor fit]	–
CCOC(=O)c1cnc2ccc(C(=O)OC)cc2c1NCc1ccco1	inconclusive: 0.141 µM [activator, full curve, poor fit]	–
COc1ccc(C(=O)NCCSc2ccccc2)cc1OC	active: 14.1 µM	–
CC1SC(c2ccccc2Cl)NC1=O (centres undefined)	inconclusive: 35.5 µM [activator, single point]	–
CCn1c(CSc2nc(C)cc(C)n2)nnc1SCC(=O)Nc1cccc2ccccc12	inconclusive: 0.0045 µM [activator, full curve]	–
COC(=O)CS(=O)(=O)c1nc2ccccc2nc1N1CCCCC1	–	inactive: 10.6%
Cc1cc(Cl)ccc1NC(=S)N1CCN(C(=O)C2CCCO2)CC1 (centres undefined)	inconclusive: 0.005 µM [activator, full curve]	–
Cc1ccc(NC(=O)Cn2c(=O)c3cc(Cl)ccc3n3nncc23)cc1	–	inactive: -7.99%
O=c1c2[nH]c3ccccc3c2ncn1CCN1CCNCC1	inconclusive: 11.2 µM [activator, partial curve, poor fit]	–
CCOc1ccc(Oc2nc(NCC(C)C)nc(NC(C)(C)C)n2)nn1	inconclusive: 12.6 µM [activator, partial curve]	–
CC1=Nc2cc(C(=O)NC3CCCC3)ccc2Sc2ccc(C)cc21	–	inactive: -32.7%
CCC(=O)Oc1ccc(C/C(=N\O)c2ccc(O)cc2O)o1	inconclusive: 20 µM [activator, single point]	–
FC(F)Sc1ccc(NC(=S)NCc2ccccc2)cc1	inconclusive: 3.55 µM [activator, partial curve]	–
Cc1ccc(NC(=O)c2cc3ccccc3o2)cc1S(=O)(=O)N(C)C	active: 12.6 µM	–
Cc1cc(C)cc(-n2c(SCC(N)=O)nc3c(oc4ccccc43)c2=O)c1	–	inactive: 0.123%
O=c1c2ccccc2oc2nc(-c3cccs3)n(CCc3ccccc3)c(=O)c12	inconclusive: 25.1 µM [activator, single point]	–

SMILES	Potency	activity change, positive = activation
Cc1sc2c(c1C)C(=O)NC(c1cccc(O)c1)N2 (centres undefined)	inconclusive: 3.55 µM [activator, partial curve]	–
CC(C)c1ccc(-c2cc(C(=O)N3N=C(C(F)F)CC3(O)C(F)F)c3ccccc3n2)cc1 (centres undefined)	inconclusive: 17.8 µM [activator, single point]	–
O=C1OCCC1Sc1nnc(-c2ccccc2Br)n1Cc1ccccc1 (centres undefined)	inconclusive: 15.8 µM [activator, single point]	–
CCOC(=O)c1oc2ccc(/C=N/O)c(Cl)c2c1C	inconclusive: 17.8 µM [activator, partial curve, poor fit]	–
COc1ccc(Cl)cc1-n1c(C)ccc1C	–	inactive: 28.6%
COc1cc(O)oc1C=Nc1ccccc1	–	inactive: -6.91%
O=C(CSc1nc2ccccc2c(=O)n1-c1ccccc1)N1CCN(CCO)CC1	inconclusive: 3.16 µM [activator, partial curve, poor fit]	–
CC[n+]1ccc(C[n+]2ccccc2)c2ccccc21	inconclusive: 0.708 µM [activator, full curve, poor fit]	–
Cc1nc2c(n1C1CCCCC1)C(=O)c1ccccc1C2=O	inconclusive: 35.5 µM [activator, single point]	–
O=[N+]([O-])c1cc(Br)c(OCc2nnc(-c3ccccc3)o2)c(Br)c1	–	inactive: -8.66%
COc1ccc(-c2csc(N3N=C(C)C(C)C3=O)n2)cc1 (centres undefined)	inconclusive: 12.6 µM [activator, partial curve]	–
N#CC1=C(SCC(=O)c2ccccc2)NC2=C(C(=O)CCC2)C1c1ccco1 (centres undefined)	inconclusive: 35.5 µM [activator, single point]	–
O=S(=O)(c1ccccc1)N1CCN(c2ncccn2)CC1	inconclusive: 0.0631 µM [activator, full curve, poor fit]	–
O=[N+]([O-])c1ccc2nc(-c3ccccc3)[nH]c2c1	active: 7.08 µM	–
N#Cc1c(N)nc2c(c1-c1ccc3c(c1)OCO3)CCc1ccccc1-2	inconclusive: 1 µM [activator, full curve]	–
COc1cccc(/C=C/C(=O)OCC(=O)NCCc2ccccc2)c1	–	inactive: 7.21%
COc1ccc2nc(SCC(=O)N3CCNC3=O)[nH]c2c1	inconclusive: 17.8 µM [activator, partial curve, poor fit]	–
COC(=O)c1ccc(NC(=O)CCc2c(C)nc3c(c2C)c(=O)n(C)c(=O)n3C)cc1	inconclusive: 35.5 µM [activator, single point]	–
Cc1ccc(C2NC(=O)c3ccccc3N2)s1 (centres undefined)	active: 10 µM	–
O=C(OCC(=O)N1CCN(C(=O)c2ccco2)CC1)c1cc(-c2cccc(Br)c2)nc2ccccc12	–	inactive: -11.7%
O=S(=O)(CCOc1ccccc1)c1nc2ccccc2[nH]1	–	inconclusive: 46.6% [activator]
CCC(=O)Oc1cccc(C(=O)Nc2ccc(-c3nnc(-c4ccco4)o3)cc2)c1	inconclusive: 35.5 µM [activator, single point]	–
O=S(=O)(c1ccc(Cl)cc1)c1cnc2ccccc2n1	inconclusive: 14.1 µM [activator, partial curve, poor fit]	–
COc1ccc(C)cc1NC(=O)C(NS(=O)(=O)c1cccc2nsnc12)c1ccccc1 (centres undefined)	–	inactive: -9.15%
COc1ccc(C2C(C(C)=O)=C(O)C(=O)N2c2nccs2)c(OC)c1 (centres undefined)	–	inactive: -6.55%

SMILES	Potency	activity change, positive = activation
Cc1occc1C(=O)NNC(=S)Nc1ccccc1C(F)(F)F	inconclusive: 35.5 µM [activator, single point]	–
CC(C)[C@@H]1NC(=O)c2cc([N+](=O)[O-])cc(F)c2NCCC[C@@H](C(N)=O)NC(=O)[C@H](CO)NC1=O	inconclusive: 3.98 µM [activator, full curve, poor fit]	–
CCCCCCCCCCS(=O)(=O)N/N=C/c1ccc([N+](=O)[O-])cc1	inconclusive: 10 µM [activator, partial curve, poor fit]	–
COc1ccccc1CNC(=O)CCCn1c(=O)c2ccccc2n(Cc2ccccc2F)c1=O	–	inactive: 9.94%
O=C(NCc1cccs1)c1cc(-c2cccs2)on1	inconclusive: 17.8 µM [activator, single point]	–
Cc1cccc(C(=O)NN2C(=O)C3C(c4ccccc4)C=CC(c4ccccc4)C3C2=O)c1 (centres undefined)	inconclusive: 8.91 µM [activator, partial curve]	–
O=C(CCNS(=O)(=O)c1cccc2nsnc12)NCCC1=CCCCC1	inconclusive: 0.0708 µM [activator, full curve, poor fit]	–
Cc1ccc(-n2c(C)cc(C(=O)CSc3nnc4ccccn34)c2C)cc1	active: 2.24 µM	–
CCN1C(=O)c2cccc3c(S(=O)(=O)Nc4ccccn4)ccc1c23	inconclusive: 11.2 µM [activator, partial curve]	–
CC(C)OC(=O)[C@@H]1C=C[C@H](C)[C@@H](CCCCOCc2ccccc2)O1	–	inactive: 26.3%
CCCOc1ccc(-c2nnc(N)s2)cc1	inconclusive: 7.94 µM [activator, partial curve]	–
CC(=O)N1CCN(C(=S)Nc2ccc(SC(F)F)cc2)CC1	inconclusive: 1.12 µM [activator, full curve]	–
Cc1nn2c(C(F)(F)F)cc(-c3ccc(OC(C)C)cc3)nc2c1C#N	–	inactive: -7.4%
Cc1n[nH]c(C)c1S(=O)(=O)NCCc1ccc(Cl)cc1	–	inactive: -7.15%
O=C(Nc1nccs1)c1cc2c(s1)CCCCC2	–	inactive: -66.1%
COC(=O)c1ccc(NC(=O)c2ccccc2SC)cc1	inconclusive: 35.5 µM [activator, single point]	–
Cc1nonc1NC(=O)OC1CCCCC1	inconclusive: 0.0708 µM [activator, full curve, poor fit]	–
Nc1ncnc2c1ncn2C1CCCC1	inconclusive: 0.224 µM [activator, full curve, poor fit]	–
CCOC(=O)c1sc(NC(=O)c2ccc(Br)o2)cc1C	active: 11.2 µM	–
Cc1cc2nc(-c3ccc(SCc4ccc(C#N)cc4)nc3)[nH]c2cc1C	–	inactive: -25.8%
CCOC(=O)CSc1nc(N)c(C#N)cc1C#N	inconclusive: 35.5 µM [activator, single point]	–
O=C(Nc1ccc(Cl)cc1)c1ccc2c(c1)OCO2	active: 4.47 µM	–
COc1ccc(CCNC(=O)C2CC(c3cccc([N+](=O)[O-])c3)=NO2)cc1 (centres undefined)	inconclusive: 15.8 µM [activator, single point]	–
O=C(Nc1nc2cc3c(cc2s1)OCO3)C1=COCCO1	active: 0.501 µM	–

— PubChem BioAssay AID1458 (National Center for Advancing Translational Sciences (NCATS), 2008)
